Results taken from the RNAGym collection of RNA variant scans (doi:10.1073/pnas.2313332121).
Variants at the background level are over-represented here.

B1: TPR 5TU (parent)
chain: GGAUCUUCUCGAUCUAACAAAAAAGACAAAUCUGCCACAAAGCUUGAGAGCAUCUUCGGAUGCAGAGGCGGCAGCCUUCGGUGGCGCGAUAGCGCCAACGUUCUCAACUAUGACACGCAAAACGCGUGCUCCGUUGAAUGGAGUUUAUCAUG

Variants of: B1
Assay: polymerase ribozyme fitness, log enrichment relative to wild type (log ratio); higher = more active; in vitro selection for triplet polymerase activity
Method in brief: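 Both subunits of a heterodimeric triplet polymerase ribozyme were given their own mutant library, built by PCR and transcribed. Each library was annealed with a biotinylated primer, the partner subunit and triplets, incubated frozen at −7 °C, and its extended constructs gel-excised, captured on streptavidin beads and amplified by RT-PCR, all in one round done in triplicate. Fitness is the logarithm of genotype enrichment relative to wild-type enrichment, with replicates averaged by inverse-variance weighting. That logarithm is base 2, and Illumina-sequenced genotypes needed ≥10 input reads and ≥1 read per output.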

Polymerase ribozyme fitness (log ratio), ≤ -4.2:
U31G C35A A47G G62U A142G U146G
U31G C35U C57G C87G A110G A113U A122G
U31G C36U A52C C76U A91U C116A
U31G C87G C105A
U31G G34C G50A A73C C95A C96A A106G A120G U144G
U31G G34U U61A C95G C123U
U31G G42A A47C U53A U61C A115G
U31G G42C G58U C75A U102G
U31G G46U C54A C96U G133U
U31G G65C C79G C85U C131G
U31G G65U A97U A98C
U31G U33A A64U C95U U146C
U31G U33G C43U G58A A97U
U31G U44A C93U C95U C114U
U31G U45A G58A G88A C99A U144A
U31G U45A U101G U102C A142C
C32A A40C C54A A66C C95U A120U C125U G133C A142U
C32A A40G U53G G136U A150C
C32A A41G G50C U53A C63U A66C G88A A137U
C32A A47U C57G G84U G86C G94U C105A A106C A142U
C32A A47U C99U U102G C125U G143U
C32A A49C G67C A73C G141C
C32A A52U G59U
C32A A60G C114U A119U A142U
C32A C35G C57U U90G G92C
C32A C51U U53C C57A U109A
C32A C57U C79G C85G C96A C123U
C32A C57U G59A G84A C116G U135A A147U
C32A C72U U82G C85G G88A A115U C132U A142U
C32A C87G A115U A137C
C32A C99U G140A
C32A G59C C85A C131U U148A
C32A G67A A107G A137G
C32A G84C C85G C96G G136A
C32A G86A G88A U135C G136C
C32A G92A A98G G136C G143C
C32A U102A G124C
C32G A37C G48A U56G G80A G84U A97U G152U
C32G A37G U53A G68U G88U C96G
C32G A39U C96U C103G A119U G128A
C32G A40C A41C G81A
C32G A40U G58C G62A G94A C118G A142C A150G
C32G A40U G86A C93G C96G C116A
C32G A41G C43G U56A G58A C125A G143C
C32G A60G U90A C93U G133C
C32G A91G C99U C131U
C32G A115C G136A U139A G140A
C32G C35U C54A C75U G84U
C32G C36U A41C U61A C87U A97C U102G C125G
C32G C38A G42A C54U C105A U109G
C32G C38U C72U C87U
C32G C75U G92U G143A
C32G C79U G86U A89C
C32G C103G
C32G G34U A41U C43U A49U A64G G65A C85G U151C
C32G G50A A106U U145A
C32G G50U C51U G92A
C32G G62C G68U G84C C87G U151A
C32G G70C U82C
C32G G71A C87A
C32G G80C C85A A107U U134A G140U
C32G G84U
C32G G86C G100C
C32G G94A G143C
C32G U33A C57U G86U C118G A120U C129A U135A G141C
C32G U33A U78A A97U C108G
C32G U44A A52G A73U C79U C93A C99G C103U C125A
C32G U53A
C32G U55A C57U C69A U90G C93U A122C G141C A150C
C32G U61G C76A G92A C99A U102A U111C C116U C149G
C32G U77A C85U
C32U A41C G86U C93U
C32U A41C U53A U61A C96U G143C
C32U A73G C95G C96U U101G C103A A150U
C32U A91C C103G
C32U C43G A47U A60C C76G
C32U C54A G92C U144G U148C
C32U C54A U55A C114U A115C
C32U C57G G94A C108G G124C G141A
C32U C69A G83A A97U A115G
C32U C76U C87U A89G C105A
C32U C79U
C32U G46U U55A U56A C85U U148C
C32U G50C C54U
C32U G50C U53A U55A G84U
C32U G68U C125A
C32U U55G U101G U102G U134A
U33A A37C C76G G124U
U33A A52G C87U U102A
U33A A52G C93A G140U
U33A A89G A115U
U33A C35A G50A C87U C99A G136A
U33A G42C C54U U56A C96U
U33A G58A C75U G86U C87A G92A
U33A G65C U90C
U33A G67A C87U A106U C118G G128A
U33A G67U G81U C96G C103G
U33A G68A G71U A106C U135A
U33A G70C C118G
U33A G71A C118G
U33A G84C C95G A147C
U33A U44A C54G G58C A60C C79A C95A A97U A142C
U33A U45G U61C
U33A U55A C57U G58A G70C C95U C149U
U33C A39C G59U
U33C A39C G74A A89G C95U A110G
U33C A41C A49G C93A A120G
U33C A41C C57U A66G G136C
U33C A47C U109A G143U
U33C A73G U77G C96U
U33C C35U C79G A91C C108A U109C
U33C C38U A66C U77G C85A A98U C105U
U33C C43A G124A
U33C C87A A137C G141A
U33C G34A G59A G68A A107C C131G U146G
U33C G88A
U33C U44A G81U C85G A97U U111A A119U C125G G141U
U33C U55G A107C C116U
U33G A41C G46A G67A G84U G124U G133U G143A
U33G A49G C54A C57A C63U C72U C87A U102G A107U G124C
U33G A49U G67C G74A U134A U139C
U33G A52G C87U G100C
U33G C43U C93U C114U U139C
U33G C51U U53A C76U U78A C96G C132U
U33G C54U A89C G126A G133A
U33G C57A A91G A137U
U33G C75A C87G U109A A113U G117U
U33G C79A A91G
U33G C79U G81C G86A C114A G140A
U33G C93G A107G A110U A119G A137U U151G
U33G G34U A41G G74A U77C U130C U139A
U33G G48A C54U G62C
U33G G48U G86U G143U U144G
U33G G68U C72A G92C A107G A122C U145G A150G
U33G G92A U109C G126A
U33G G94U G117U C149A
U33G G94U G126A
U33G U44G A60C U82G A122U C125U
U33G U44G C85G A91G U151A
U33G U55A C57U G68U C85G C93G C118U
U33G U61A C79A A91U C95A
G34A A47C G59A A91G
G34A A49C G67C C85A G124C
G34A A52C A122U U135C
G34A A52G G83U G88C C103A C118U U139G G141U
G34A A89G A110U
G34A C36A U56G C95U U144C
G34A C36U C105A A107U
G34A C43U U55A G58C A66C G71A A89U C95U A121U A142C
G34A C95A C96G A97G G100U C131A
G34A G42U A91U C95G
G34A G58C A64G C79U G92U
G34A G65U C69G A91U G92C
G34A U78G G88A C95U G141A
G34C A41C C79U U151G
G34C C76U C87G
G34C G48C C75U G81A A107U G140A
G34C G58A C87U C93U C99U
G34C G59A G141U A142U
G34C U53G G58A C63A C69U G70C A113U C123A
G34U A37U C75A C87U C105A A115G C132U
G34U A91U C108A C123U
G34U C35G A60C C72U C93G U104C C114U U144A U145A
G34U C57A C87G A91G C96A G133A A138U
G34U C95G G124A U139A
G34U G42A G48A G94C A107U
G34U G48U A138G U144G
